Reference: PubChem BioAssay AID1745853 (National Center for Advancing Translational Sciences (NCATS), 2022)
This is one part of the list. The main result of the screen is listed elsewhere. These columns were measured beside it and carry no call.

Key:
Assay in all cases: Primary Screen for Target Class Profiling of Small Molecule Inhibitors of Methyltransferases
[1] = molecular target: Glycine N-methyltransferase (Homo sapiens) (UniProt Q14749); settings: purified enzyme, MTase-Glo SAH luminescence; measured here: GNMT inhibition; at 40 µM; stronger effect = lower value
Procedure, shortened: (§1)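 Each enzyme was reacted with SAM and its substrate, with compounds tested once at 40 uM; SAH formed was read by MTase-Glo luminescence.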

[2] = molecular target: Guanidinoacetate N-methyltransferase (Homo sapiens) (UniProt Q14353); settings: purified enzyme, MTase-Glo SAH luminescence; measured here: GAMT inhibition; at 40 µM; stronger effect = lower value
Procedure, shortened: as §1

[3] = molecular target: Histamine N-methyltransferase (Homo sapiens) (UniProt P50135); settings: purified enzyme, MTase-Glo SAH luminescence; measured here: HNMT inhibition; at 40 µM; stronger effect = lower value
Procedure, shortened: as §1

[4] = molecular target: Nicotinamide N-methyltransferase (Homo sapiens) (UniProt P40261); settings: purified enzyme, MTase-Glo SAH luminescence; measured here: NNMT inhibition; at 40 µM; stronger effect = lower value
Procedure, shortened: as §1

[5] = molecular target: Phenylethanolamine N-methyltransferase (Homo sapiens) (UniProt P11086); settings: purified enzyme, MTase-Glo SAH luminescence; measured here: PNMT inhibition; at 40 µM; stronger effect = lower value
Procedure, shortened: as §1
% is scaled to controls: 0 for no effect and ±100 for the full control effect.

Structure (SMILES) | activity change, negative = inhibition [1] [%] | activity change, negative = inhibition [2] [%] | activity change, negative = inhibition [3] [%] | activity change, negative = inhibition [4] [%] | activity change, negative = inhibition [5] [%]
CC(=O)N1CCN(Cc2snnc2C(C)C)CC(O)C1 (stereo not given) | -0.744 | 0.755 | 2.52 | -0.594 | -3.62
COc1ccc(C(=O)N[C@H](C)c2c(-c3ccc(F)cc3)noc2C(=O)O)cc1 | -10.2 | -3.23 | -1.81 | -13.1 | -0.736
Nc1nc2c(cnn2CCc2ccccc2)c2nc(-c3ccco3)nn12 | -63.9 | 2.57 | -6.19 | -9.14 | 2.77
CNC(=O)c1c(F)cccc1Nc1nc(Nc2cc3c(cc2OC)CCN3C(=O)CN(C)C)nc2[nH]ccc12 | -6.16 | 9.4 | -8.5 | -1.66 | -0.491
COc1ccc2c(c1)c(CC(=O)O)c(C)n2C(=O)c1ccccc1 | -0.896 | 13.8 | 6.33 | -11.7 | 7.65
Cc1cccc(NC(=O)Cn2nc3n(C(C)C)c(=O)c4ccc(C(=O)NC5CCCCC5)cc4n3c2=O)c1 | 1.67 | 1.87 | 3.99 | 1.81 | 2.72
CCC(C)NC(=O)c1ccc2c(=O)n(C)c3nn(Cc4ccccc4Cl)c(=O)n3c2c1 (stereo not given) | -3.7 | 0 | 0.523 | -4.48 | 0.235
COc1ccccc1CNC(=O)CCn1ccc2cc(S(=O)(=O)N3CCC(C)CC3)ccc21 | 4.42 | -1.05 | -1.92 | -3.74 | -3.77
CCN(CC)CCCNC(=O)CCCc1nnc2n3nc(-c4ccccc4)nc3c3ccccc3n12 | -10.6 | 0 | -61.6 | 9.37 | -4.35
COCCOc1cc(C)c2c(c1C)C[C@H](C(C)C(=O)NCc1cccs1)CC2 (stereo not given in full) | -5.72 | -4.07 | -11.2 | -13.8 | -6.32
O=C(N[C@@H]1CCOC[C@H]1OCc1cscn1)c1ccccc1-n1cccn1 | -0.047 | -1.73 | -1.58 | -2.11 | -1.75
O=C(/C=C/c1cccc(S(=O)(=O)Nc2ccccc2)c1)NO | 1.52 | 2.35 | 6.93 | -8.12 | 6.09
O=C(c1n[nH]c2c1CCCC2)N1CCCC2(C1)Nc1cccnc1NC2=NC1CCCC1 (stereo not given) | -6.79 | -2.6 | -14.1 | -24.9 | 9.18
Cc1cc(O)cc(O[C@@H]2O[C@H](CO)[C@@H](O)[C@H](O)[C@H]2O)c1 | 2.42 | 1.42 | 3.45 | -9.57 | 4.7
Cc1ccc2n1CCN(C(=O)NCc1ccccc1)C2C(C)C (stereo not given) | -2.94 | 0.927 | -13.2 | -15.3 | -8.31
Cn1c2c(c3ccccc31)C(C(=O)NCc1ccccc1)N(c1cccc(Cl)c1)C(=O)CS2 (stereo not given) | -2.47 | 0.741 | -5.89 | -15.7 | -9.04
COc1ccc2cc3n(c2c1)CC(C)(C(=O)NC1CCCC1)N(c1cccc(F)c1)C3=O (stereo not given) | 2.4 | -0.355 | 1.95 | 3.63 | -3.63
CCCN1C(=O)c2c(C(=O)NCc3cc(OC)ccc3OC)ncn2CC1(C)C(=O)NCc1ccc(C)cc1 (stereo not given) | -1.84 | 0 | -1.59 | -1.48 | 1.4
COc1ccc(NC(=O)CCc2nnc3n(CCCOC(C)C)c(=O)c4ccccc4n23)cc1OC | -3.79 | 3.04 | -4.1 | 12.5 | -7.38
Cc1ccc(C(=O)N2CCC(C(=O)N3CCC(N4CCCC4=O)CC3)CC2)cc1 | 0.001 | 2.21 | 0.722 | 1.98 | 5.61
CNC(=O)c1cc(C)nc2onc(C3CCCN3C(=O)C(C)(C)C)c12 (stereo not given) | -3.53 | 0.585 | 2.06 | -2.98 | -9.45
Cn1nc(CN2CCOCC2)c2c1CCN(S(=O)(=O)c1cccnc1)C2 | -3.06 | 0.979 | -0.141 | -0.123 | 11
CCc1ccc(S(=O)(=O)N2[C@@H]3CC[C@H]2CC(NC(=O)c2ccc(F)cc2)C3)cc1 (stereo not given in full) | -7.97 | -7.62 | -7.98 | -16 | -12.5
COc1ccc(CN2CCNC(=O)C2CC(=O)NCc2ccncc2)cc1OC (stereo not given) | -7.52 | -4.26 | -3.14 | -26.8 | -4.15
CCOc1ccc(CNC(=O)c2cc3n(n2)CC(C)(C(=O)NCCC(C)C)N(C)C3=O)cc1OC (stereo not given) | 4.83 | 4.98 | 5.51 | 1.07 | -0.646
Cc1ccc(N2C(=O)c3cc(C(C)(C)C)nn3CC2(C)C(=O)NC2CCCCC2)c(C)c1 (stereo not given) | -4.62 | 2.31 | 0.963 | 2.92 | -3.33
CC1(C(=O)NC2CCCCCCC2)Cn2c(cc3occc32)C(=O)N1Cc1ccc(F)cc1 (stereo not given) | -2.24 | 4.8 | -2.26 | -13.1 | -2.84
C=C1C(=O)OC2/C=C(\C)CC3C=C(CC/C=C(\C)CCC12)C(=O)O3 (stereo not given) | -5.89 | -2.42 | 0.852 | -13.3 | 2.23
CC(C)CCn1c(=O)c2ccc(C(=O)NC(C)C)cc2n2c(=O)n(Cc3cccc(Cl)c3)nc12 | 3.33 | 0.056 | -5.7 | 11.3 | 1.34
